B1: LINE1-mini (parent)
chain: GGCAGAGCUCAACACAGCGUGGCAAAGUGGCUGUGGCUAGACUGCC

Read counts are not given, so values of variants with three or more changes are uncertain.

Variants of B1 are the subject of the series. In words: self-cleavage, relative activity (ratio to wild type); higher = more cleavage; in vitro, sequencing; the parent is a self-cleaving ribozyme.
Turning to GACAUAGCUCAACACAGCAUGGGAAAGGCGGUGUGGCUAUACUGCC, the self-cleavage stood at 0.04.
The same measure for GACAGAUCUCAACAUAGCGUGGCAUAGUGGCUGUGGCUAGACUGUC: 0.09.
Consider GACAGAACUCAACACAGCGUGGCAAAGUGGUUGUGGCUAGACUGCC, for which the self-cleavage came out at 1.17.
As for GACAUGGCUCAACACAGCGUGGCAAAGUGGCUGUGGCUAGACUGCC, the figure is 0.35; as for GACAGAGCUCAACACAGCGUGGUAAAGUGGCGGUGGCUAGACUGCC, 0.22; as for GACAUAGCUAAGCACAGCGUGGCAAAGUGGCUGUGGCUAGACUUCC, 0.03.
On to GACAUAGCUCAACACAGCGUGGCAAAGUGGCUGUGGCCAGACUGCC, for which the self-cleavage stood at 0.04.
As for GACAAUGCUCAACACAGCGUGGCAAACUGGCUGUGGCUAGACUGCC, the figure is 0.54.
Regarding GACAAAGCUCAACACAGCGUGGCAAAGGGGGUAUGGCUGUACUGCC, the self-cleavage worked out at 0.09.
The same measure for GACAUAGCUCAACACAGCGUGGCAAAGUGCCUGUGGCUAGACUGCC: 0.31; for GACAGAGCUCAACACAGCGUGGCAAAGUGGAUGUGGAUAGACUUCG: 0.37; for GACAGAGCUCAACACAGUUUGGCACAGUGGCUGGGGCUAGACUGCU: 0.1.
The same measure for GACAAAGCUCAACAUCGCGUGGCAAAGUGGAUGUGGCAAGCCUGCC: 0.06.
The same measure for GACAGAGCUCAACACAGCGUGGCAAAGUGGCUGUGGGUAGACCGCC: 0.16; for GACAUAGCUCAACACAGCGUGGCAAAGUGGCUGUGGCUGGACUGCC: 0.05.
With GACAAAGCACAACGCAACGUGGCAAAGUGGCUGUGGCUGGUCUGCC, the self-cleavage is 0.6.
As for GACAGAUCUCAACACCGCGUGGGAAAGAGGCUGUGGCUAGACUGCC, the figure is 0.01; as for GACAAAGCUCAACACAACGUGGCAAAGGGGCUGUGGCUCGACUGCG, 0.04.
Take GACAAAGCUCAAGACACCGUGGCAAAGUGGCUGUGGCUAGACUGCC: the self-cleavage was 0.1.
The same measure for GACAGAGCUCAACACAGCGUGGCAAAGUGGAUGUGGCUUGACUGCC: 0.15; for GACAGAGCUCAACACAGCGUGGCAAAGUGGUGGUGUCUAGUCUGCC: 0.05; for GACAGAGCUCAACACAGCGUGGGAAUGUGGCUGUGGCUAGACUGCC: 0.69.
The same measure for GACAGAUGUCAACAGAGCGUGGCAAAGCGGAAGUGGCUAGACUGCC: 0.08.
With GACAUAGCUCAAGACAGCGUGGCAAAGUGGCUGUGGCUAGACUGCC, the self-cleavage amounted to 0.19.
As for GACAGAGCUCAACACAGCGUGGCAAAGUGGUUGUGGCUGGACUGCA, the figure is 0.05; as for GACAGAACUCAACACAGCGUGGCAAAGCGGCUGUGGAUAGACUGCC, 0.19.
The same measure for GACAGAGCUCAACACAGGGUGGCAAAGUGGGUGUGGCUAGACUGAC: 0.04; for GACAGAGCUCAACACAGCGUGGCAAAGUGGCUGUGGUUCUACUGCC: 0.27; for GACACAGCUCAACACAUCGUGGCAAAGUGGCUGUGGCUAGGCUGCC: 0.05.
In the case of GACAGAGCUCAACACAGGGUGGCAAAGUGGCUGUGGUUAGACUGCC, the self-cleavage was 0.1.
As for GACAGAGCUCAACACAGCGUGGCAAAGUGGUUGUGGAUAGACUGCC, the self-cleavage was determined as 0.22.
For the variant GACAGAUCUCAACACAGUGUGGCAAAGUGGUUGUGGCUAGAGUGCC, the self-cleavage was 0.1.
With GACAGAUCUCAACACAGCGUUGCAAAGUGGCUGUGGCUAGACUGCC, the self-cleavage was found to be 0.22.
Turning to GACAGAGCUCAACACAGCGUGGCAAAGUGGGUGUGGCUAGACUGCG, the self-cleavage stood at 0.12.
For the variant GACAUAGCUCAACACAGCCUGGCAAAGUGGCUGUGGCUAGCCUGCC, the self-cleavage worked out at 0.06.
For GACAGAGCUCAACACAGCGUGGUAAAGUGACUGUGGCUAGACUGAC, the self-cleavage came out at 1.28.
For GACAAAGCUCAACACAGCGUGGCAAAGUGGCUGCGGAUAGACUGCC, the self-cleavage came out at 0.21.
The same measure for GACAGAGCUCAACACAGCGUGGCAAAGUGGCUGUGGAUAGACAGCC: 0.25; for GACAGAGCUCAACACAGAGUGGCAAAGUGGCUGUGGCUAGACUACC: 0.08; for GACAUAGCUCUACACAGCGUCGCAAAGUGGCUGUGGCUAUGCUGCC: 0.
The same measure for GACAGAGCUCAACACAGCGUGGAAAAGUGGCCGUCGCUAGACUGCC: 0.06.
GACACAGCUCGACACAACGUGGCAAAGUGACUGUGGCUAGACUGCC: the self-cleavage came out at 0.07.
For GACAGAACUCGACACAGCGUGGCAAAGUGUCUGUGGCUGGACUGCC, the self-cleavage stood at 0.03.
As for GACAGACCUCAACACAGUGUAGCAAAGUGGCUGUGGCUAGACUGCC, the self-cleavage was determined as 1.17.
The same measure for GACAGAUGUCAACACAGCGUGGCAAAGUGGCUGUGACUAUACUGCA: 0.03.
As to GACAGAUCUCAACACCGCGUAGCAAAGUGGCUGUGGCUAGACUGUU, the self-cleavage was 0.1.
As for GACAGAGCUCAACACAACGUGGCAAUGUGGCUGUGGCUAGACUUCC, the figure is 0.13; as for GACAAAGCUCAACACAACGUGGCAAAGUGGCUGUGGCUAGACUGCC, 0.21.
Regarding GACAAAGCUCAACACAACGUGUCAAAGUGGCUGUGGCUAGACUUCC, the self-cleavage was 0.04.
As for GACAUACCUCAACACAGCGUGGCAAAGUGGCUGUGGCUAGACUGCA, the figure is 0.17.
GACAGAACUCAACACAGCGUGGCAAACUGGCUGUGGCUAGACUGCC: the self-cleavage was determined as 0.98.
Regarding GACAGAACUCAACACAGCAUGGCAAAGUGGCUGUGGCUAGACUGAG, the self-cleavage was found to be 0.44.
The same measure for GACAAAGCUCCACACGGCGUGGCAAAGUGGCUGUGGCUAGACUGCC: 0.08.
For the variant GACAAAGCUCAACACAGCGUGGCAAAGUGGCUGUGGCUAGGCUGCC, the self-cleavage was determined as 0.3.
As for GACACAGCUCAACAAAGGGUGGCAAAGUGGCCGUGGCUAUACUGCC, the figure is 0.02.
As for GACAAAGCUCAGCACAGCGUGGCAAAGUGGCUGUGGCUAGACUCGC, the figure is 0.18.
